# Experimental data reported in paper PMC6919601, “Identification of Plasmodium dipeptidyl aminopeptidase allosteric inhibitors by high throughput screening” (PLoS ONE, 2019).
# The campaign covered roughly 110,000 compounds. About 230 (0.21%) showed an effect of 50% or more. This is one part of the list.
# Target: DPAP1 (Plasmodium falciparum, UniProt Q8IIJ9)
# Assay: primary screen, percent inhibition; read by cleavage of a fluorogenic dipeptide substrate; higher = more effect of the substance
# Design: species or system P. falciparum D10 trophozoite lysates; single well
# 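Also: 30 min substrate incubation versus DMSO and 10 µM JCP410 controls.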
# Chain of DPAP1 (Q8IIJ9 whole entry, looked up): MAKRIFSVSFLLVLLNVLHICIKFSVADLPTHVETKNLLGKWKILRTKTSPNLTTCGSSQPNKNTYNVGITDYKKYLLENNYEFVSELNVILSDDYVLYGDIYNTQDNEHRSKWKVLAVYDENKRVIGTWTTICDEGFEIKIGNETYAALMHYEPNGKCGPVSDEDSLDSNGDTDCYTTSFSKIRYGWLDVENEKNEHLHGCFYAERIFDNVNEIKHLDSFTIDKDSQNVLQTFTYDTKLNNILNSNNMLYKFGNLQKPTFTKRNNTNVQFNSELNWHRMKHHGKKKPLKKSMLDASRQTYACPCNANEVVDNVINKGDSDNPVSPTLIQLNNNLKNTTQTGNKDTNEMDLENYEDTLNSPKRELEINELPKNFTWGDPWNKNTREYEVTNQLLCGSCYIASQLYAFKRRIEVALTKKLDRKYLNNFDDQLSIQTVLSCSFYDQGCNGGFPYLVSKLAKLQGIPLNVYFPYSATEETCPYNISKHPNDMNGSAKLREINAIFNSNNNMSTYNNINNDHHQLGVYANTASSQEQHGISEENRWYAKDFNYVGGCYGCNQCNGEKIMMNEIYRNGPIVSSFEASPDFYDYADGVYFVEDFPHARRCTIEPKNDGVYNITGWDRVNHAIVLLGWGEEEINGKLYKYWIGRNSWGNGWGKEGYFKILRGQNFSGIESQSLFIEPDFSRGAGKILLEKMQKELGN
row,Compound,% Inhibition @ 10 uM
1,CC(=O)N1c2ccccc2-[n+]2ccsc2CC1C (stereo not drawn),3.91%
2,CCn1c(C)c(C)c2cc(C(=O)NCCCc3ccccc3)ccc21,-5.09%
3,COc1cc(/C=C/c2nc(C#N)c(NCc3ccc(C)cc3)o2)cc(OC)c1OC,4.13%
4,O=C(Cc1ccccc1)N1CCN(Cc2cccc(Br)c2)CC1,0.528%
5,CCC(Oc1ccccc1)C(=O)Nc1ncccc1Cl (stereo not drawn),-3.75%
6,CCOC(=O)NC(=O)c1cn(Cc2ccc(Cl)cc2)c(=O)[nH]c1=O,-3.37%
7,CC(=O)c1cccc(NC(=O)C2CC2c2ccccc2)c1 (stereo not drawn),-0.312%
8,O=C(CCN1CCCCC1)Nc1ccc(C2CCCC2)cc1,4.11%
9,O=C(O)c1ccccc1C(=O)Nc1cc(Cl)ccc1Cl,4.64%
10,CCCCNC(=O)CN(C1CCCCC1)S(C)(=O)=O,3.21%
11,COC(=O)C1=C(C)N(C)C(C)=C(C(=O)OC)C1c1cccc(Cl)c1Cl,6.12%
12,CCOC(=O)c1c(NC(=O)CSc2cc(C)c3ccc(OC)cc3n2)sc(C(=O)OC)c1C,1.58%
13,Cc1oc2cc3oc(=O)ccc3cc2c1C,-1.15%
14,O=C(COc1ccc2ccccc2c1Br)N1CCc2ccccc21,-3.37%
15,COCCN1C(=O)c2ccccc2C(C(=O)NCCCN2CCCC2)C1c1c[nH]c2ccccc12 (stereo not drawn),4.05%
16,CCCc1cc(O)nc(SCC(=O)Nc2ccccc2C(F)(F)F)n1,-7.06%
17,COC(=O)c1c(Sc2ccccc2)c2ccccc2n1C,-0.0309%
18,COC(=O)c1ccc(/C=C2\N=C(c3ccc(F)cc3)OC2=O)cc1,2.92%
19,CC1CC(C)CN(C(=O)c2cc3c(s2)-c2ccccc2OC3)C1 (stereo not drawn),-4.85%
20,COc1ccc2c(CNCc3ccc4c(c3)OCO4)c(C(=O)O)[nH]c2c1,-4.16%
21,COc1ccc(S(=O)(=O)NCc2ccco2)cc1C,4.25%
22,O=C(Nc1ccccn1)c1ccc(C(F)(F)F)cc1,-2.98%
23,CC(=O)c1ccc(NC(=O)COc2cc(C)ccc2C)cc1,3.35%
24,COc1ccc(CCNC(=O)Cc2c(C)c3cc4c(C)coc4cc3oc2=O)cc1,-0.808%
25,Cn1c(=O)c2c(nc(NCCCN3CCOCC3)n2C)n(C)c1=O,6.97%
26,CCOc1ccccc1C(=O)Nc1ccc(F)c(Cl)c1,-1.24%

row,Compound,% Inhibition @ 10 uM
1,O=C(NCc1ccc(Cl)cc1)c1cc(-c2ccccn2)nc2ccccc12,2.9%
2,CC(C)=CCC[C@H](C)CCN1CCCC(O)C1 (stereo partly drawn),3.15%
3,CCOC(=O)/C(C#N)=C/c1c(Oc2cccc(C)c2C)nc2c(C)cccn2c1=O,-7.04%
4,O=C(NCCCCNC(=O)C1CCCC1)C1CCCC1,4.11%
5,COc1ccc(CCNC(=O)c2noc3c2COc2ccc(C)cc2-3)cc1OC,-4.07%
6,CCc1cccc2c(C#N)cn(CC(N)=O)c12,-0.105%
7,O=C(NCc1ccco1)/C(=C/c1ccco1)NC(=O)c1ccccc1,-0.988%
8,CC1CCCCC1N(C)C1CCN(CCCNC(=O)/C=C/c2cccc(C(F)(F)F)c2)CC1 (stereo not drawn),-2.85%
9,Cc1cc(C)n(-c2ccc(C(=O)Nc3ccccn3)cc2)n1,1.87%
10,CC1CCCCC1NC(=O)c1cnn2c(C(F)(F)F)cc(-c3cccs3)nc12 (stereo not drawn),4.36%
11,Cc1ccc(C)n1-c1nnc(N2CCC(C(=O)N3CCC(N4CCCCC4)CC3)CC2)s1,4.22%
12,CCC(CCC(=O)Nc1ccn(-c2ccccc2)n1)C(=O)O (stereo not drawn),-1.52%
13,COc1cccc(N(CC(=O)Nc2ccccc2C(C)C)S(C)(=O)=O)c1,-1.2%
14,CCc1ccc(S(=O)(=O)/N=C2\C=C(NS(=O)(=O)c3ccccc3)C(=O)c3ccccc32)cc1,-1.52%
15,Cc1sc2ncnc(N3CCN(Cc4ccccc4)CC3)c2c1C,-7.18%
16,c1nc(NC2CCCCC2)c2c3c(sc2n1)CCCC3,-2.51%
17,CC1=C(C(=O)Nc2cccc(C)n2)C(c2ccc(C)cc2)C2=C(O)CC(C)(C)CC2=N1 (stereo not drawn),2.51%
18,O=C(O)c1cccc(NS(=O)(=O)c2cccc(S(=O)(=O)c3ccc(Cl)cc3)c2)c1,3.25%
19,Cn1c(=O)n(Cc2ccc(Br)cc2)c(=O)c2c1nc1n2CCN1Cc1ccco1,1.42%
20,O=C1CSC2(N1)C1CC3CC(C1)CC2C3 (stereo not drawn),-2.44%
21,COc1ccc(C)cc1NC(=O)NC1CCCCC1,0.331%
22,CC(=O)c1c(C(C)=O)c(C)n(-c2cc(C)ccc2C)c1C,1.03%
23,Cc1ccc(-n2nc3c(=O)n(CCCC(=O)NCCN4CCOCC4)nc(C)c3c2C)cc1,-8.76%
24,O=C(Nc1cccc(NC(=O)c2cccs2)c1)c1ccccc1,-1.79%
25,CC1=CC(C)=Nc2ccccc2N1,-0.274%
26,O=C(CSc1c(O)nc2ccc(Cl)cc2c1-c1ccccc1)N1CCOCC1,-9.59%

row,Compound,% Inhibition @ 10 uM
1,O=C1C2C(C(=O)N1CCO)C1C=CC2C12CC2 (stereo not drawn),-0.988%
2,O=C(NCc1ccc2c(c1)OCO2)C1CCN(S(=O)(=O)c2c[nH]cn2)CC1,2.9%
3,COc1ccc(NC(=O)c2cccnc2)cc1,1.38%
4,O=S(=O)(c1ccc(-c2cs/c(=N\c3ccccc3)n2-c2ccccc2)cc1)N1CCOCC1,8.26%
5,Cc1ccc(S(=O)(=O)Nc2ccccc2/N=C/c2ccc(Br)cc2)cc1,-2.6%
6,COc1cc(C)c(CN2CC(C)CC(C)C2)cc1C (stereo not drawn),-1.5%
7,CC(NC(=O)C(=O)Nc1cccc(C(F)(F)F)c1)c1ccccc1 (stereo not drawn),-1.75%
8,Cc1c(C)n(CC(O)CN2CCCCCC2)c2ccccc12 (stereo not drawn),-1.57%
9,COc1ccc(-c2noc(C(=O)NC(C)c3ccccc3)n2)cc1OC (stereo not drawn),2.77%
10,O=C(Nc1sc2c(c1C(=O)O)CCCC2)c1cccc(Cl)c1,8.21%
11,COc1ccc(CC(=O)Nc2ccc(C)cc2C)cc1,-3.27%
12,COc1cc(C(=O)Nc2cc(C)cc(C)c2)cc(OC)c1OC,5.06%
13,CC1SC(c2ccccc2)N(Cc2ccccc2)C1=O (stereo not drawn),-2.42%
14,COC(=O)c1ccc(C2C=C(c3ccc(C(C)C)cc3)Nc3nnnn32)cc1 (stereo not drawn),-1.48%
15,CCOC(=O)c1[nH]c(C)c(C(=O)NCCN(C)C)c1C,3.32%
16,CCCCc1c(C)nc2ccc(C(=O)O)cc2c1Cl,-1.99%
17,O=S(=O)(Nc1nc2c(s1)CCCC2)c1ccc(F)cc1,-10.7%
18,CSc1ncc(-n2c(-c3ccccc3)cs/c2=N\C(=O)c2ccccc2)cn1,-4.18%
19,COC(=O)c1ccc(Oc2nc(C)cc(N)n2)cc1,-2.87%
20,COc1ccc(NC(=O)C2CC2(c2ccc(C)cc2)c2ccc(C)cc2)cc1 (stereo not drawn),3.32%
21,CC(C)CC1=NC(C(F)(F)F)(C(F)(F)F)N=C(N2CCCCC2)O1,4.94%
22,O=C1/C(=C/c2ccco2)CCc2ccccc21,-2.95%
23,Nc1ncnc2c1nc(SCCO)n2Cc1ccccc1,-0.45%
24,Cc1sc2c(c1C)c(=O)n(CCc1ccccc1)c(=O)n2Cc1cc(=O)n2ccccc2n1,1.76%
25,CCOC(=O)c1noc2ncnc(N(Cc3ccco3)C3CCCCC3)c12,4.48%
26,Cc1noc2ncnc(NCCN3CCC(C)CC3)c12,1.06%

row,Compound,% Inhibition @ 10 uM
1,CCOc1cc(C2C3=C(O)CCCC3=NC(C)=C2C(=O)N2CCOCC2)ccc1O (stereo not drawn),1.86%
2,O=C(NCC1CCCO1)C1CCN(C(=O)c2cnn(-c3ccccc3)c2-n2cccc2)CC1 (stereo not drawn),4.76%
3,Fc1ccc(CNc2ccccn2)cc1,-0.551%
4,CCO/C(O)=C/C(C)=N/c1nc2ccccc2s1,-0.148%
5,O=C(Nc1ccc(N2C(=O)c3cccnc3C2=O)cc1)c1ccco1,-2.32%
6,CN1CCN(S(=O)(=O)c2ccccc2)CC1,-0.127%
7,CCN(CC)S(=O)(=O)N1CCC(C(=O)N2CCC3(CC2)OCCO3)CC1,-4.06%
8,CCCOc1ccc(N2C(=O)CC(N3CCC(C(=O)O)CC3)C2=O)cc1 (stereo not drawn),-2.63%
9,CCC[C@H](NC(=O)[C@@H](CC(C)C)NC(=O)c1ccc(N2CCN(C)CC2)cc1)C(=O)c1nnc(-c2ccccc2OC)o1,-8.26%
10,CC[C@H](NC(=O)[C@H](CC(C)C)NC(C)=O)C(=O)c1nc2ccccc2o1,1.35%
11,OCCC1CCCCN1C1CCC(c2ccccc2)CC1 (stereo not drawn),1.57%
12,Oc1nc(-c2ccccc2)cc(-c2ccccc2O)n1,0.215%
13,COc1ccc(NC(=O)c2cccnc2Cl)cc1,25.9%
14,CCOC(=O)C1CCN(Cc2cccc(Cl)c2)CC1,6.06%
15,CCC(C)NC(=O)c1ccc(CS(=O)(=O)Cc2cccc(C)c2)o1 (stereo not drawn),-1.79%
16,Cc1ccc(-c2noc(CSc3nc(C)cc(O)n3)n2)cc1,-1.11%
17,CN1CCN(Cc2cccc(Br)c2)CC1,-3.13%
18,Cc1ccc2c(c1)-c1cc(C)nn1C(c1ccccc1)N2 (stereo not drawn),-8.41%
19,O=C(NCc1ccc2c(c1)OCO2)C1CCN(c2nc3cc(Cl)ccc3s2)CC1,1.16%
20,COc1cccc(C2C(C#N)=C(N)Oc3[nH]nc(-c4cc(C)sc4C)c32)c1 (stereo not drawn),-0.958%
21,CCOC(=O)N1CCC(NC(=O)Cn2ncc3c2-c2cc(C)ccc2OC3)CC1,-2.53%
22,CC(=O)NS(=O)(=O)c1ccc(NC(=O)CCC2CCCCC2)cc1,-2.19%
23,CCN(Cc1ccccc1)C(=O)C1CCN(S(=O)(=O)c2ccc3nc(O)ccc3c2)CC1,-4.68%
24,N#CC1=C(N)Oc2c(O)cc3ccccc3c2C1c1cccc(Cl)c1 (stereo not drawn),2.92%
